According to patent US20250019440A1 (Zymeworks, published 2025):
Read-outs that look alike come from different tables or passages of the source.

Experiments:
Human PD-L1 [1] = target: T1, Human PD-L1 (human, UniProt Q9NZQ7 fragment); assay: SPR, PD-L1 amine-coupled, variant as analyte, 1:1 model
T1 construct: Amine-coupled to a CM5 chip for SPR; also called recombinant human PD-L1

Mouse PD-L1 = target: T2, Mouse PD-L1 (mouse, UniProt Q9EP73 fragment, limits assumed); assay: as above
T2 construct: Amine-coupled to a CM5 chip for SPR; also called recombinant mouse PD-L1

Cynomolgus monkey PD-L1 = target: T3, Cynomolgus monkey PD-L1 (cynomolgus monkey, UniProt G7PSE7 19-239); assay: as above
T3 construct: Amine-coupled to a CM5 chip for SPR; also called recombinant cynomolgus monkey PD-L1

Human PD-L1 [2] = target: T1, Human PD-L1; assay: as above; remark: listed apart in the source
Human CD3 (recombinant) = Human CD3 (recombinant) (human); assay: SPR, CD3 amine-coupled, variant as analyte, 1:1 model
Human CD3 (recombinant), sequence (chain, as listed by the source): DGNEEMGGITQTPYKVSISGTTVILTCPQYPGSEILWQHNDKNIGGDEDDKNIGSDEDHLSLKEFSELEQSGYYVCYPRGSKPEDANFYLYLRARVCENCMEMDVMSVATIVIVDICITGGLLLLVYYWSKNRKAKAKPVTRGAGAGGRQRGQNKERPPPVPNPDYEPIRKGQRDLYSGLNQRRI

T1 sequence (Q9NZQ7 19-239 limits assumed): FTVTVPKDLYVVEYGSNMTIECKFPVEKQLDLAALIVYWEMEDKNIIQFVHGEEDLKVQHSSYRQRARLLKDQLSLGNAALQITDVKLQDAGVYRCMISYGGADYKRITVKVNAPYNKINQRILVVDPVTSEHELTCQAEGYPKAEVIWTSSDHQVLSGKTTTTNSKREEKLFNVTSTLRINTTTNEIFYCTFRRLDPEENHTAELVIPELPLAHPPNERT
Cynomolgus monkey PD-L1, sequence (G7PSE7 entry or part of it): as the sequence (Q9NZQ7 19-239 limits assumed) above, with A33T, A34S, S62N, R68Q, Q82R, F173L, T185A, T192I, H215L counted along it
Mouse PD-L1, sequence (Q9EP73 19-238 limits assumed): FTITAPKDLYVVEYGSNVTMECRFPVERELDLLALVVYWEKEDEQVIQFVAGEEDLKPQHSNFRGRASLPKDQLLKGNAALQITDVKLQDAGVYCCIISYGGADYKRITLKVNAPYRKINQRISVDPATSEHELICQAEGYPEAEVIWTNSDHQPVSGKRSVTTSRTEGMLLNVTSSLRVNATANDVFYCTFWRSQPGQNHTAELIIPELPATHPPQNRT

Kd (Human PD-L1 [1]) [nM]	Kd (Mouse PD-L1) [nM]	Kd (Cynomolgus monkey PD-L1) [nM]	Kd (Human PD-L1 [2]) [nM]	Kd (Human CD3 (recombinant)) [nM]	Binder
1600	46	140	110	110	v38736 (other, Cldn18.2 Fab x CD3 scFv Fc, wildtype (WT) PD-1 attached to HC2 (N-term)) heavy 1: NPPTFSPALLVVTEGDNATFTCSFSNTSESFVLNWYRMSPSNQTDKLAAFPEDRSQPGQDARFRVTQLPNGRDFHMSVVRARRNDSGTYLCGAISLAPKAQIKESLRAELRVTEGGGGSGQVQLVESGGGLVQPGGSLRLSCSVSGIDLSSNPMIWVRQAPGKGLQYIGIIDTDGSTYYADWAKGRFTISKDSTTVYLQINSPRAEDTAVYYCARRLHGSSNGYYDDLWGQGTLVTVSSASTKGPSVFPLAPSSKSTSGGTAALGCLVKDYFPEPVTVSWNSGALTSGVHTFPAVLQSSGLYSLSSVVTVPSSSLGTQTYICNVNHKPSNTKVDKKVEPKSCDKTHTCPPCPAPEAAGGPSVFLFPPKPKDTLMISRTPEVTCVVVSVSHEDPEVKFNWYVDGVEVHNAKTKPREEQYNSTYRVVSVLTVLHQDWLNGKEYKCKVSNKALPAPIEKTISKAKGQPREPQVYVLPPSRDELTKNQVSLLCLVKGFYPSDIAVEWESNGQPENNYLTWPPVLDSDGSFFLYSKLTVDKSRWQQGNVFSCSVMHEALHNHYTQKSLSLSPG light: DGQMTQSPSSVSASVGDRVTITCQASQSIYSYLSWYQQKPGQRPKLLIYKASTLASGVPSRFSGSGSGTDFTLTISSVQPEDFATYYCQQGYTVTNVDKNTFGGGTKVEIKRTVAAPSVFIFPPSDEQLKSGTASVVCLLNNFYPREAKVQWKVDNALQSGNSQESVTEQDSKDSTYSLSSTLTLSKADYEKHKVYACEVTHQGLSSPVTKSFNRGEC heavy 2: EVQLVESGGGLVQPGGSLRLSCAASGVTFNYYGMSWIRQAPGKGLEWVASITSSGGRIYYPDSVKGRFTISRENTQKTLYLQMNSLRAEDTAVYYCTLDGRDGWVAYWGQGTLVTVSSGGGGSGGGGSGGGGSGGGGSNFMLTQPHSVSESPGKTVTISCKRNTGNIGSNYVNWYQQHEGSSPTTIIYRNDKRPDGVSDRFSGSIDRSSKSASLTISNLKTEDEADYFCQSYSSGFIFGGGTKLTVLA[human IgG1 Fc with changes not shown]
440				30	v38732 (other, CD3 Fab x Cldn18.2 scFv Fc, wildtype (WT) PD-1 attached to HC1 (N-term)) heavy 1: NPPTFSPALLVVTEGDNATFTCSFSNTSESFVLNWYRMSPSNQTDKLAAFPEDRSQPGQDARFRVTQLPNGRDFHMSVVRARRNDSGTYLCGAISLAPKAQIKESLRAELRVTEGGGGSGEVQLVESGGGLVQPGGSLRLSCAASGVTFNYYGMSWIRQAPGKGLEWVASITSSGGRIYYPDSVKGRFTISRENTQKTLYLQMNSLRAEDTAVYYCTLDGRDGWVAYWGQGTLVTVSSASTKGPSVFPLAPSSKSTSGGTAALGCLVKDYFPEPVTVSWNSGALTSGVHTFPAVLQSSGLYSLSSVVTVPSSSLGTQTYICNVNHKPSNTKVDKK[human IgG1 Fc with changes not shown] light: NFMLTQPHSVSESPGKTVTISCKRNTGNIGSNYVNWYQQHEGSSPTTIIYRNDKRPDGVSDRFSGSIDRSSKSASLTISNLKTEDEADYFCQSYSSGFIFGGGTKLTVLGQPKAAPSVTLFPPSSEELQANKATLVCLISDFYPGAVTVAWKADSSPVKAGVETTTPSKQSNNKYAASSYLSLTPEQWKSHRSYSCQVTHEGSTVEKTVAPTECS heavy 2: QVQLVESGGGLVQPGGSLRLSCSVSGIDLSSNPMIWVRQAPGKGLQYIGIIDTDGSTYYADWAKGRFTISKDSTTVYLQINSPRAEDTAVYYCARRLHGSSNGYYDDLWGQGTLVTVSSGGGGSGGGGSGGGGSGGGGSDGQMTQSPSSVSASVGDRVTITCQASQSIYSYLSWYQQKPGQRPKLLIYKASTLASGVPSRFSGSGSGTDFTLTISSVQPEDFATYYCQQGYTVTNVDKNTFGGGTKVEIKAAEPKSSDKTHTCPPCPAPEAAGGPSVFLFPPKPKDTLMISRTPEVTCVVVSVSHEDPEVKFNWYVDGVEVHNAKTKPREEQYNSTYRVVSVLTVLHQDWLNGKEYKCKVSNKALPAPIEKTISKAKGQPREPQVYVLPPSRDELTKNQVSLLCLVKGFYPSDIAVEWESNGQPENNYLTWPPVLDSDGSFFLYSKLTVDKSRWQQGNVFSCSVMHEALHNHYTQKSLSLSPG
59				2.9	v38729 (other) heavy 1: NPPTFSPALLVVTEGDNATFTCSFSNTSESFRLVWHRESPGYETDTLASFPEDRSTPLPDARFRVTQLPNGRDFHMSVVRARRNDSGTYVCGAIAFHPVIQIKESLRAELRVTEGGGGSGEVQLVESGGGLVQPGGSLRLSCAASGVTFNYYGMSWIRQAPGKGLEWVASITSSGGRIYYPDSVKGRFTISRENTQKTLYLQMNSLRAEDTAVYYCTLDGRDGWVAYWGQGTLVTVSSASTKGPSVFPLAPSSKSTSGGTAALGCLVKDYFPEPVTVSWNSGALTSGVHTFPAVLQSSGLYSLSSVVTVPSSSLGTQTYICNVNHKPSNTKVDKK[human IgG1 Fc with changes not shown] light: NFMLTQPHSVSESPGKTVTISCKRNTGNIGSNYVNWYQQHEGSSPTTIIYRNDKRPDGVSDRFSGSIDRSSKSASLTISNLKTEDEADYFCQSYSSGFIFGGGTKLTVLGQPKAAPSVTLFPPSSEELQANKATLVCLISDFYPGAVTVAWKADSSPVKAGVETTTPSKQSNNKYAASSYLSLTPEQWKSHRSYSCQVTHEGSTVEKTVAPTECS heavy 2: QVQLVESGGGLVQPGGSLRLSCSVSGIDLSSNPMIWVRQAPGKGLQYIGIIDTDGSTYYADWAKGRFTISKDSTTVYLQINSPRAEDTAVYYCARRLHGSSNGYYDDLWGQGTLVTVSSGGGGSGGGGSGGGGSGGGGSDGQMTQSPSSVSASVGDRVTITCQASQSIYSYLSWYQQKPGQRPKLLIYKASTLASGVPSRFSGSGSGTDFTLTISSVQPEDFATYYCQQGYTVTNVDKNTFGGGTKVEIKAAEPKSSDKTHTCPPCPAPEAAGGPSVFLFPPKPKDTLMISRTPEVTCVVVSVSHEDPEVKFNWYVDGVEVHNAKTKPREEQYNSTYRVVSVLTVLHQDWLNGKEYKCKVSNKALPAPIEKTISKAKGQPREPQVYVLPPSRDELTKNQVSLLCLVKGFYPSDIAVEWESNGQPENNYLTWPPVLDSDGSFFLYSKLTVDKSRWQQGNVFSCSVMHEALHNHYTQKSLSLSPG
120				94	v38731 (other) heavy 1: NPPTFSPALLVVTEGDNATFTCSFSNTSESFVLNWYRMSPSNQTDKLAAFPEDRSQPGQDARFRVTQLPNGRDFHMSVVRARRNDSGTYLCGAISLAPKLQIKESLRAELRVTEGGGGSGEVQLVESGGGLVQPGGSLRLSCAASGVTFNYYGMSWIRQAPGKGLEWVASITSSGGRIYYPDSVKGRFTISRENTQKTLYLQMNSLRAEDTAVYYCTLDGRDGWVAYWGQGTLVTVSSASTKGPSVFPLAPSSKSTSGGTAALGCLVKDYFPEPVTVSWNSGALTSGVHTFPAVLQSSGLYSLSSVVTVPSSSLGTQTYICNVNHKPSNTKVDKK[human IgG1 Fc with changes not shown] light: NFMLTQPHSVSESPGKTVTISCKRNTGNIGSNYVNWYQQHEGSSPTTIIYRNDKRPDGVSDRFSGSIDRSSKSASLTISNLKTEDEADYFCQSYSSGFIFGGGTKLTVLGQPKAAPSVTLFPPSSEELQANKATLVCLISDFYPGAVTVAWKADSSPVKAGVETTTPSKQSNNKYAASSYLSLTPEQWKSHRSYSCQVTHEGSTVEKTVAPTECS heavy 2: QVQLVESGGGLVQPGGSLRLSCSVSGIDLSSNPMIWVRQAPGKGLQYIGIIDTDGSTYYADWAKGRFTISKDSTTVYLQINSPRAEDTAVYYCARRLHGSSNGYYDDLWGQGTLVTVSSGGGGSGGGGSGGGGSGGGGSDGQMTQSPSSVSASVGDRVTITCQASQSIYSYLSWYQQKPGQRPKLLIYKASTLASGVPSRFSGSGSGTDFTLTISSVQPEDFATYYCQQGYTVTNVDKNTFGGGTKVEIKAAEPKSSDKTHTCPPCPAPEAAGGPSVFLFPPKPKDTLMISRTPEVTCVVVSVSHEDPEVKFNWYVDGVEVHNAKTKPREEQYNSTYRVVSVLTVLHQDWLNGKEYKCKVSNKALPAPIEKTISKAKGQPREPQVYVLPPSRDELTKNQVSLLCLVKGFYPSDIAVEWESNGQPENNYLTWPPVLDSDGSFFLYSKLTVDKSRWQQGNVFSCSVMHEALHNHYTQKSLSLSPG
6.7				110	v38412 (other) heavy 1: EVQLVESGGGLVQPGGSLRLSCAASGVTFNYYGMSWIRQAPGKGLEWVASITSSGGRIYYPDSVKGRFTISRENTQKTLYLQMNSLRAEDTAVYYCTLDGRDGWVAYWGQGTLVTVSSASTKGPSVFPLAPSSKSTSGGTAALGCLVKDYFPEPVTVSWNSGALTSGVHTFPAVLQSSGLYSLSSVVTVPSSSLGTQTYICNVNHKPSNTKVDKKVEPKSCDKTHTCPPCPAPEAAGGPSVFLFPPKPKDTLMISRTPEVTCVVVSVSHEDPEVKFNWYVDGVEVHNAKTKPREEQYNSTYRVVSVLTVLHQDWLNGKEYKCKVSNKALPAPIEKTISKAKGQPREPQVYVYPPSRDELTKNQVSLTCLVKGFYPSDIAVEWESNGQPENNYKTTPPVLDSDGSFALVSKLTVDKSRWQQGNVFSCSVMHEALHNHYTQKSLSLSPGGGGGSGQVQLVESGGGLVQPGGSLRLSCSVSGIDLSSNPMIWVRQAPGKGLQYIGIIDTDGSTYYADWAKGRFTISKDSTTVYLQINSPRAEDTAVYYCARRLHGSSNGYYDDLWGQGTLVTVSSGGGGSGGGGSGGGGSGGGGSDGQMTQSPSSVSASVGDRVTITCQASQSIYSYLSWYQQKPGQRPKLLIYKASTLASGVPSRFSGSGSGTDFTLTISSVQPEDFATYYCQQGYTVTNVDKNTFGGGTKVEIK light: [about 120 residues not shown]GGGSGNFMLTQPHSVSESPGKTVTISCKRNTGNIGSNYVNWYQQHEGSSPTTIIYRNDKRPDGVSDRFSGSIDRSSKSASLTISNLKTEDEADYFCQSYSSGFIFGGGTKLTVLGQPKAAPSVTLFPPSSEELQANKATLVCLISDFYPGAVTVAWKADSSPVKAGVETTTPSKQSNNKYAASSYLSLTPEQWKSHRSYSCQVTHEGSTVEKTVAPTECS heavy 2: QVQLVESGGGLVQPGGSLRLSCSVSGIDLSSNPMIWVRQAPGKGLQYIGIIDTDGSTYYADWAKGRFTISKDSTTVYLQINSPRAEDTAVYYCARRLHGSSNGYYDDLWGQGTLVTVSSGGGGSGGGGSGGGGSGGGGSDGQMTQSPSSVSASVGDRVTITCQASQSIYSYLSWYQQKPGQRPKLLIYKASTLASGVPSRFSGSGSGTDFTLTISSVQPEDFATYYCQQGYTVTNVDKNTFGGGTKVEIKAAEPKSSDKTHTCPPCPAPEAAGGPSVFLFPPKPKDTLMISRTPEVTCVVVSVSHEDPEVKFNWYVDGVEVHNAKTKPREEQYNSTYRVVSVLTVLHQDWLNGKEYKCKVSNKALPAPIEKTISKAKGQPREPQVYVLPPSRDELTKNQVSLLCLVKGFYPSDIAVEWESNGQPENNYLTWPPVLDSDGSFFLYSKLTVDKSRWQQGNVFSCSVMHEALHNHYTQKSLSLSPG
